Results on 53 molecules are retold here after ChEMBL document CHEMBL4888484, “Replenishing the malaria drug discovery pipeline: Screening and hit evaluation of the MMV Hit Generation Library 1 (HGL1) against asexual blood stage Plasmodium falciparum ,using a nano luciferase reporter read-out” (2022).

In general, % Inhibition refers to the relative decrease from the control value, in per cent.

The campaign covered roughly 150,000 compounds. About 540 (0.36%) showed an effect of 50% or more. The list shows a part of the results.

The subject of the assay is Plasmodium falciparum. Description: Primary screen in NF54 nanoGlo assay, in single point, at 2uM, 72h; a lower Z score goes with more inhibition. Type of assay: functional, Erythrocyte. The settings on record: timepoint 72 hour.
As for `Cc1nn(C)c(C)c1CCCNC(=O)NCC(=O)N1CCCC1`, the “% Inhibition” value was -7% and the Z score was 0.96.

For `Cc1cnc(CNC(=O)c2ccc(C)s2)o1`, the “% Inhibition” value was -5% and the Z score is 0.92.

For the molecule `Cc1ccc(CCC2(O)CCCCC2)cn1`, the “% Inhibition” value was -11% and the Z score came to 1.48.

For `c1ccc2nc(NCCN3CCOCC3)cnc2c1`, the “% Inhibition” value was -9% and the Z score is 1.05.

As to `COc1ccc(NC(=O)[C@@H](c2cc(OC)c(OC)c(OC)c2)N(Cc2ccccc2C)C(=O)Cn2nnc3ccccc32)cc1`, the “% Inhibition” value came to 1% and the Z score is -0.19.

In the case of `CN1CCN(C(=O)c2ccnnc2)C[C@H]1c1ccccc1`, the “% Inhibition” value is listed as -18% and the Z score is listed as 2.78.

Turning to `COc1ccc(NC(=O)N2CCc3c([nH]c4ccc(Cl)cc34)[C@H]2c2ccc(C)cc2)cc1OC`, the “% Inhibition” value is recorded as -7% and the Z score is recorded as 1.

On to `CC(C)OCCCNC(=O)[C@]1(C)Cn2cnc(C(=O)Nc3cccc(Cl)c3)c2C(=O)N1C1CC1`, for which the “% Inhibition” value was -8% and the Z score was 1.21.

In the case of `O=c1[nH]nc(CCNc2nc3c(c(=O)[nH]2)Cc2ccccc2OC3)[nH]1`, the “% Inhibition” value is 3% and the Z score is given as -0.52.

As for `Cc1c(Cl)cccc1NC(=O)Cn1nc2c(N(C)C)nc3ccccc3n2c1=O`, the “% Inhibition” value is -12% and the Z score came out at 1.74.

For `Cc1c(NC(=O)Cc2ccc(-c3ccccc3)cc2)c(=O)n(-c2ccccc2)n1C`, the “% Inhibition” value is on record as -6% and the Z score turned out to be 0.98.

For the molecule `CC(C)[C@H]1N(C(=O)CN2CCCC2)CCN1S(=O)(=O)c1ccccc1`, the “% Inhibition” value was 1% and the Z score is given as -0.17.

With `CN1CCC(N(C)C(=O)c2csc(NC(=O)c3cccc(Cl)c3)n2)CC1`, the “% Inhibition” value is reported as 1% and the Z score was -0.13.

`COc1ccc(NC(=O)C2CCN(S(=O)(=O)c3cc(-c4noc(C)n4)ccc3Cl)CC2)cc1`: the “% Inhibition” value is recorded as -15% and the Z score is 1.95.

Turning to `CCN1CC2(CCN(C(=O)Cc3cccnc3)CC2)CC1=O`, the “% Inhibition” value was -8% and the Z score was 1.31.

With `O=C(NCCn1ccnc1C1CC1)c1ccoc1`, the “% Inhibition” value is -4% and the Z score is listed as 0.76.

Take `COc1cc2ccccc2cc1C(=O)Nc1ccc(-c2nc3c(ccc4ccccc43)o2)cc1`: the “% Inhibition” value was -11% and the Z score is on record as 1.25.

As for `O[C@H](COc1ccc(-c2ccccc2)cc1)CN1CCn2ccnc2C1`, the “% Inhibition” value is on record as -5% and the Z score turned out to be 1.09.

Turning to `CC[C@H](C)OCC(=O)Nc1cc(Br)ccc1NC(C)=O`, the “% Inhibition” value is on record as -11% and the Z score was determined as 1.43.

For the molecule `CC1(C)CCc2nnc([C@H]3CCS(=O)(=O)C3)n2C1`, the “% Inhibition” value was -18% and the Z score is 3.65.

As to `Cc1ccccc1OCC(=O)Nc1cnc2cc(C(F)(F)F)nn2c1`, the “% Inhibition” value was determined as 14% and the Z score is on record as -1.82.

For the molecule `O=C(c1ccccc1)c1ccc(O)c(CN2CCCN(c3ccc(C(F)(F)F)cn3)CC2)c1O`, the “% Inhibition” value came to 84% and the Z score was -8.75.

`COc1cc(-c2ccno2)ccc1S(=O)(=O)Nc1ccc(F)cc1`: the “% Inhibition” value came to 1% and the Z score is -0.28.

With `CC1(C)C(=O)NC(=O)N1Cc1noc(-c2cnsn2)n1`, the “% Inhibition” value was -38% and the Z score was 4.46.

On to `Cc1cnc(CNC(=O)C(C)(C)[C@H](NC(=O)OC(C)(C)C)c2ccccc2)s1`, for which the “% Inhibition” value turned out to be 1% and the Z score was -0.1.

As for `Cc1nc(N2CCC(Cn3nc4c(cc3=O)CCC4)CC2)c2cnn(C)c2n1`, the “% Inhibition” value is listed as -10% and the Z score worked out at 2.06.

For `CCOc1ccc(Cl)cc1CNCCN(C)C`, the “% Inhibition” value is given as -12% and the Z score was 2.43.

For the molecule `C[C@H]1COCCN1Cc1cn2ccccc2c1C#N`, the “% Inhibition” value is given as -3% and the Z score was found to be 0.36.

Take `Cc1nn(CC(C)C)c(C)c1S(=O)(=O)NC1CC(C)OC(C)C1` (stereo unspecified): the “% Inhibition” value was -12% and the Z score worked out at 1.09.

Turning to `CO[C@@H](CNC(=O)Cn1nnnc1N)c1cccs1`, the “% Inhibition” value was -9% and the Z score was 0.91.

With `CN(C)c1nnc(CNS(=O)(=O)c2ccc(Cl)s2)[nH]1`, the “% Inhibition” value was -16% and the Z score stood at 2.18.

On to `CC(C)CCc1nc(N2CCCN(C(=O)c3cccc(Cl)c3)CC2)c2cnn(-c3cccc(Cl)c3)c2n1`, for which the “% Inhibition” value was determined as 17% and the Z score is recorded as -2.37.

For the molecule `CC(C)(CNS(=O)(=O)c1ccc(Cl)s1)c1ccsc1`, the “% Inhibition” value is given as -5% and the Z score is on record as 1.02.

Regarding `O=C1CCCCCN1C(=O)c1ccccc1`, the “% Inhibition” value is 2% and the Z score was -0.24.

In the case of `OC[C@@]12CCN(Cc3cc(Br)ccc3F)C[C@@H]1CN(Cc1ccccc1)C2`, the “% Inhibition” value was -15% and the Z score is 1.72.

As for `CC[C@]1(N2CCN(S(=O)(=O)c3cccc(C#N)c3)CC2)CCN(C(=O)C(C)C)C1`, the “% Inhibition” value is given as -10% and the Z score was found to be 1.24.

Take `CC(C)(C)CC(C)(C)NC[C@H](O)COCc1ccccc1`: the “% Inhibition” value is -1% and the Z score is 0.2.

`CO[C@@]12CC[C@@H](O)C[C@@H]1N(C(=O)c1c[nH]c3ccc(C)cc3c1=O)CC2`: the “% Inhibition” value was -11% and the Z score came to 1.28.

On to `Cc1csc(CN2CC3(CCOCC3)[C@@H]2C2CC2)n1`, for which the “% Inhibition” value is 3% and the Z score is -0.27.

For the molecule `O=C(NCCCCNC(=O)c1cncc(O)c1)c1cncc(O)c1`, the “% Inhibition” value is reported as 8% and the Z score is reported as -1.48.

As for `Cc1cnccc1CN(C)C(=O)c1cncn1C`, the “% Inhibition” value was -1% and the Z score turned out to be 0.17.

Take `COc1ccc(-n2nc3nc(NCCN4CCOCC4)nc(-c4cccc(OC)c4)c3c2N)cc1`: the “% Inhibition” value is listed as -8% and the Z score is 1.07.

For `COc1ccc(S(=O)(=O)N2CCN3C(=O)N(Cc4ccc(C)cc4)C[C@H]3C2)cc1`, the “% Inhibition” value is listed as -3% and the Z score came to 0.35.

For `CN1CCC(NC(=O)N2CC(C)(C)C2C2CC2)C1=O` (stereo unspecified), the “% Inhibition” value is recorded as -8% and the Z score is 1.29.

For the molecule `Cc1ccc(S(=O)(=O)Nc2ccc3nc(-c4cccc(Cl)c4)oc3c2)cc1`, the “% Inhibition” value is listed as 9% and the Z score was -1.07.

Regarding `Cn1cncc1[C@H]1NC(=O)CC[C@@H]1NC(=O)N1CCC[C@@H]1C(F)F`, the “% Inhibition” value was -1% and the Z score turned out to be 0.07.

As to `CN(c1nc2ccc(F)cc2o1)C1CC(O)C1` (stereo unspecified), the “% Inhibition” value is -5% and the Z score amounted to 0.88.

For the molecule `CC(CCc1cccc(F)c1)C(=O)N1CCOC(CC(=O)O)C1` (stereo unspecified), the “% Inhibition” value is recorded as 3% and the Z score is recorded as -0.39.

Regarding `CCCc1nnsc1-c1nc(-c2cccnn2)no1`, the “% Inhibition” value is -11% and the Z score came out at 1.45.

Take `COc1ccc(C(=O)N2C[C@@H]3CCC[C@H](C2)C(=O)N3)cn1`: the “% Inhibition” value was -13% and the Z score was found to be 2.53.

For `COc1nc2c(cc1C(=O)N1CCO[C@H](c3ccccc3)C1)C(=O)N(C1CCCC1)C2`, the “% Inhibition” value was determined as 6% and the Z score is reported as -0.86.

For the molecule `CN1C(=O)[C@H]2CN(C(=O)Nc3ccccc3)C[C@H]2C1=O`, the “% Inhibition” value stood at 0% and the Z score was 0.03.

Turning to `Cc1cc(O)cc(=O)n1C[C@H](O)c1cccc(O)c1`, the “% Inhibition” value is -6% and the Z score was 1.11.
